The source of these data is the supplement of paper PMC11417369.

± gives the standard deviation of the averaged measurements. The list shows a part of the results.

The subject of the test is PfAP2-EXP AP2 domain (GST-tagged). The experiment in a line: gcPBM binding intensity (ln(normalized median fluorescence intensity)); higher = stronger DNA binding. The method, boiled down: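 An Agilent 4 × 180k array carrying primer-extended double-stranded 36-bp intergenic genomic probes and negative controls received GST-tagged P. falciparum DNA-binding domains expressed in E. coli, about 25 μg on average, for 1 h. The binding buffer contained 1× PBS, 1% milk, 0.2 mg/ml BSA, 0.5% salmon testes DNA and 0.03% Triton X-100. Binding intensity is the top Masliner-normalised natural-log median intensity across replicate spots of either probe orientation, read after Alexa488 anti-GST antibody staining and a 488 nm scan.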
Regarding “ATTTCCCCTTTTTATTGTACATTTTTATTTGTTACT [XGTACX_site4845]”, the “gcPBM binding intensity (ln)” value amounted to 9.14 ± 0.64.

“TAAAAAAAAACAGAAACACACATTATTCATATATAT [CACACA_site2049]”: the “gcPBM binding intensity (ln)” value is 8.58 ± 0.33.

For “AAAATATTTATGTATGCATGTTGTAATATTTCTTTA [TGCATGCA_site296]”, the “gcPBM binding intensity (ln)” value worked out at 8.57 ± 0.42.

On to “TATGCTATATATTTAGTGCATATATATAACTTTTAT [GTGCAC_site9902]”, for which the “gcPBM binding intensity (ln)” value was determined as 8.26 ± 0.23.

Turning to “TTTTAAACAGGACACACACACATATATATATATATA [CACACA_site4664]”, the “gcPBM binding intensity (ln)” value is 10.1 ± 0.42.

With “ATGTAATGTTATGTTATGTTTTTTTTTTTTTTGTGT [CACACA_negctrl_site1264]”, the “gcPBM binding intensity (ln)” value stood at 8.23 ± 0.58.

Regarding “AAAATTATATATTTTAGTACATAAAATATTGACATA [XGTACX_site2581]”, the “gcPBM binding intensity (ln)” value amounted to 8.28 ± 0.36.

On to “GTTATTGTAAAAAGATTACACACGTTCTATATACTT [CACACA_site2473]”, for which the “gcPBM binding intensity (ln)” value came to 8.62 ± 0.37.

As to “GGAATATGTATATTTTGTACGTATACATTTTTTGGG [XGTACX_site7681]”, the “gcPBM binding intensity (ln)” value was 9.49 ± 0.75.

As for “TTTATACAAAAAAACAAAATCAAACAAAAAAAAAAA [CACACA_negctrl_site252]”, the “gcPBM binding intensity (ln)” value turned out to be 8.36 ± 0.3.

“GATATATTTTATATATGTACATACAGTGGTAAATAT [XGTACX_site1324]”: the “gcPBM binding intensity (ln)” value was found to be 8.7 ± 0.24.

Turning to “TTTTCTACATCTTGTTGTACGAAAAATAAAAAAAAT [XGTACX_site4620]”, the “gcPBM binding intensity (ln)” value stood at 8.72 ± 0.47.

As for “AGTACGTAAATTATAATACACACTATAGGATATTCT [CACACA_site2559]”, the “gcPBM binding intensity (ln)” value was found to be 8.57 ± 0.35.

Turning to “AGTAGAAAAGGAACATGTACGAATTAAAAAAATAAT [XGTACX_site2347]”, the “gcPBM binding intensity (ln)” value was 9.14 ± 0.44.

As to “TCTGTAAATATGTATACACACATATATGATCAATAT [CACACA_site3234]”, the “gcPBM binding intensity (ln)” value amounted to 8.7 ± 0.38.

In the case of “AATTAAATGATTTATACATGCATATAAATATAAATA [TGCATGCA_site579]”, the “gcPBM binding intensity (ln)” value is 8.53 ± 0.25.

Turning to “TACACCATGATACATACACACAGACATATACACATT [CACACA_site6601]”, the “gcPBM binding intensity (ln)” value stood at 8.66 ± 0.37.

With “ACATATATATATATATATATATATATATTTATTTAT [CACACA_negctrl_site734]”, the “gcPBM binding intensity (ln)” value came out at 8.785 ± 0.064.

For the sequence “AAAAAACATTTGATCTGTACGCATAGACAATTATAT [XGTACX_site960]”, the “gcPBM binding intensity (ln)” value amounted to 8.49 ± 0.28.

For the sequence “TAAAAGAAAGCACATACACACACAAAAAAAAAAAAG [CACACA_site8159]”, the “gcPBM binding intensity (ln)” value came out at 8.66 ± 0.5.

As to “AATAATATGTTATCTCTTACACATATAAAAAATAAA [XGTACX_negctrl_site370]”, the “gcPBM binding intensity (ln)” value worked out at 8.18 ± 0.51.

Consider “TTATACTGTACAAAAAGAATAGCAGTATAACAAAAA [CACACA_negctrl_site755]”, for which the “gcPBM binding intensity (ln)” value stood at 8.88 ± 0.46.

In the case of “AATATGTTTTGTTAGGTTGGTGTTGGTAGAATGTTT [CACACA_negctrl_site1563]”, the “gcPBM binding intensity (ln)” value is 8.62 ± 0.64.

For the sequence “AAAAAAAAATCATATTGTACGTAAAAAAAAAAAAAA [XGTACX_site476]”, the “gcPBM binding intensity (ln)” value was 8.55 ± 0.52.

Consider “ACAGGATTGGTTCAAACACACATATTATAGGACTAT [CACACA_site6455]”, for which the “gcPBM binding intensity (ln)” value came out at 8.55 ± 0.52.

“CGAAAAAATAAAAAAAAAATAAAATAAAATAAATAA [TGCATGCA_negctrl_site278]”: the “gcPBM binding intensity (ln)” value amounted to 8.32 ± 0.47.

On to “ATAATCCTTAGACACACACACACACGAATAAATAAA [CACACA_site6364]”, for which the “gcPBM binding intensity (ln)” value is 8.87 ± 0.34.

Take “CAATATATTTGATTTACACACTTACAATGTATTTAA [CACACA_site5632]”: the “gcPBM binding intensity (ln)” value was 8.49 ± 0.44.

Take “AAAAAATTAACCGTAACACACACACCGATATATATA [CACACA_site9312]”: the “gcPBM binding intensity (ln)” value is 8.81 ± 0.42.

As for “ATTTAAATAATATTCACACACAAAATTAAATTTTAA [CACACA_site6246]”, the “gcPBM binding intensity (ln)” value was found to be 8.31 ± 0.52.

Consider “AAAAAAAAAAGAAACACACACATATAGATTTATAAC [CACACA_site6927]”, for which the “gcPBM binding intensity (ln)” value came to 8.71 ± 0.5.

For the sequence “AATCTAGGTATTTATACACACTAAAATAATATACGA [CACACA_site4515]”, the “gcPBM binding intensity (ln)” value turned out to be 8.62 ± 0.5.

Consider “GCTCTAATTAATATTTGTACACACATATTTAACCTA [XGTACX_site6808]”, for which the “gcPBM binding intensity (ln)” value was 8.8 ± 0.3.

With “TTTTTTTTTTTTTTTTGTACATAATTCCATATTTTT [XGTACX_site1789]”, the “gcPBM binding intensity (ln)” value turned out to be 8.21 ± 0.69.

On to “TGATCTTTACACATATTATATATATATAAAAAAAAA [XGTACX_negctrl_site360]”, for which the “gcPBM binding intensity (ln)” value came out at 8.49 ± 0.57.

For the sequence “TGTTATATCAATAATATATAATAATACCCTTCTTTT [CACACA_negctrl_site1682]”, the “gcPBM binding intensity (ln)” value stood at 8.2 ± 0.36.

For “TTATAACATATAAACATGTTTCATCTTACGTATTTT [GTGCAC_negctrl_site694]”, the “gcPBM binding intensity (ln)” value was 8.96 ± 0.3.

Regarding ATAAGAATATATAGAGTGCGTTGAAGAATTATAATA, the “gcPBM binding intensity (ln)” value was 8.84 ± 0.36.

“ATATTTAATTTGTATGGTACAGTACGATCTTTCTTT [XGTACX_site5533]”: the “gcPBM binding intensity (ln)” value was 8.56 ± 0.55.

In the case of “CCCTCAACGAATTTGAGTACACATTTTAAATGATAT [XGTACX_site7763]”, the “gcPBM binding intensity (ln)” value worked out at 8.58 ± 0.47.

Turning to “ATCGCAAGATTAATATAAGGAGAAACGTTTATATAT [GTGCAC_negctrl_site267]”, the “gcPBM binding intensity (ln)” value stood at 8.76 ± 0.5.

Take “AATAATATATTATATGCATGTGTATAATTTGATATA [TGCATGCA_site1058]”: the “gcPBM binding intensity (ln)” value was found to be 8.8 ± 0.3.

Consider “CAAAGGAAATGGTGTACACAATTTTTCCTTTTTCGT [CACACA_site4800]”, for which the “gcPBM binding intensity (ln)” value worked out at 8.29 ± 0.37.

Regarding “TTTGGTTATTTGACCTGTACACATTTAATTATTTTT [XGTACX_site5170]”, the “gcPBM binding intensity (ln)” value came to 8.6 ± 0.45.

For the sequence “ACAAGTATTCCTTTTGCACACCTTTCTGCACCTTAT [CACACA_site3873]”, the “gcPBM binding intensity (ln)” value is 9.35 ± 0.26.

As to “ATTATGAATTTAAGACGTACAAAAAATTTTTATTCA [XGTACX_site5682]”, the “gcPBM binding intensity (ln)” value was determined as 8.59 ± 0.47.

With AAATACTTATTCGTGGTGCAACAATTTTAAAAATTA, the “gcPBM binding intensity (ln)” value stood at 8.66 ± 0.25.

“ATTAAAATAATACGTACACACATGTATAATACATAT [CACACA_site1005]”: the “gcPBM binding intensity (ln)” value was 8.81 ± 0.29.

Consider “TATTACATAATATATGTACACACGCAAATACTTATA [CACACA_site7994]”, for which the “gcPBM binding intensity (ln)” value worked out at 8.61 ± 0.37.

Turning to “CAAAAAAAGTTATACACACACACACGGATATAAATA [CACACA_site6619]”, the “gcPBM binding intensity (ln)” value is 8.81 ± 0.61.

Turning to “TAACAACGATACAATTGTACAAATTATATATATATA [XGTACX_site4687]”, the “gcPBM binding intensity (ln)” value came to 9.89 ± 0.24.

On to “AGCAAGACGGGGTGCACACAAACTAATATGCCGAAT [CACACA_site159]”, for which the “gcPBM binding intensity (ln)” value is 9.26 ± 0.11.

As for “TATAACACACAATGATGTACATTACATTATTTTTTA [XGTACX_site2076]”, the “gcPBM binding intensity (ln)” value was found to be 8.44 ± 0.37.

As to “AATATAATATACATATGTACATATATATATATATAT [XGTACX_site8218]”, the “gcPBM binding intensity (ln)” value was determined as 10 ± 0.32.

Take “TTTTCTATATAACAACGTACATTTATTATATTATAA [XGTACX_site6148]”: the “gcPBM binding intensity (ln)” value was 8.44 ± 0.28.

On to “ATATATATATATATGTGTACATATTTTTTTGAAGTG [XGTACX_site248]”, for which the “gcPBM binding intensity (ln)” value is 10.1 ± 0.29.
